Measured values reported in PMC4336329 (PLoS ONE, 2015).
In all, about 310,000 compounds went through this assay and about 14,000 (4.5%) showed an effect of 50% or more. The effect is printed as a negative number. The list shows a part of the results.

What follows are compounds tested against human ether-à-go-go-related gene (hERG) potassium channel (human, UniProt Q12809) (assay: primary screen, population patch clamp on CHO cells stably expressing hERG).
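Also: peak tail current of the secondary pulse compared with the same well before compound.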

Sequence of human ether-à-go-go-related gene (hERG) potassium channel (Q12809 whole entry, looked up): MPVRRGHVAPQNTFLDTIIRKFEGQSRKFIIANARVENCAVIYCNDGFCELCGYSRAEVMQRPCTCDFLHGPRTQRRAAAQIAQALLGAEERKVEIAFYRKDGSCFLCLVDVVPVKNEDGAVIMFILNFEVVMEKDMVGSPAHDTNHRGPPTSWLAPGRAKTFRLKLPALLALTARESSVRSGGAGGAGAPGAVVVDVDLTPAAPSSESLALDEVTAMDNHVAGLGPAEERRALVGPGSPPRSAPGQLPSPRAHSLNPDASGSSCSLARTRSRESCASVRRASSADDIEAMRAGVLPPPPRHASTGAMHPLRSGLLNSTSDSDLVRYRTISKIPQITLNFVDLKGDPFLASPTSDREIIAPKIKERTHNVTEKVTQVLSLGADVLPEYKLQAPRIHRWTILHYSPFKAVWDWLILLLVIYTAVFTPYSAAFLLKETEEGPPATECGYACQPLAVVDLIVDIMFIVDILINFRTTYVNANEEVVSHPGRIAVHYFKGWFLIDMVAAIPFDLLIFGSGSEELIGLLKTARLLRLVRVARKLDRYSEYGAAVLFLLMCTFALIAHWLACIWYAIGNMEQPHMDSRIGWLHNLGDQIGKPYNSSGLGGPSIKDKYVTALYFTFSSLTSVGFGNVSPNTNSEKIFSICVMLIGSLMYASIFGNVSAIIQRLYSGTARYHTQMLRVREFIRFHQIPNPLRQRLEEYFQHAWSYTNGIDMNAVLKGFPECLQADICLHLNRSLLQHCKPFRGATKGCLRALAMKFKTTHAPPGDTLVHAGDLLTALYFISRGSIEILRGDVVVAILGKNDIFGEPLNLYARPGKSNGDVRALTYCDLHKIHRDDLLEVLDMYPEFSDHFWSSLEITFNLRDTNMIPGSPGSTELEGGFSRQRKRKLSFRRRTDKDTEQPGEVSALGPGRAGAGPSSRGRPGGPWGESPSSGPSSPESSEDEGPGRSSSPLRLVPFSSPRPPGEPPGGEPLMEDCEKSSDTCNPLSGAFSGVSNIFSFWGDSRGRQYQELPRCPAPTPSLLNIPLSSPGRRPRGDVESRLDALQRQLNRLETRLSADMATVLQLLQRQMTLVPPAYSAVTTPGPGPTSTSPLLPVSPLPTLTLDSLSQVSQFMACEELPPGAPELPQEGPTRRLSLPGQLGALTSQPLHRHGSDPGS

First: CCN(CC)C(=O)C(=O)N/N=C/c1cccc(Br)c1
Second: Cc1cc(Br)ccc1OCCCCNC(C)(C)C.O=C(O)C(=O)O
The “hERG current change (%, negative = inhibition) at 10uM” value of the first is higher: -8.07% for the first, -53.9% for the second.

Going from `Cc1cc(OCC(=O)NNC(=O)c2cccs2)ccc1Br` to `COc1ccc(OC)c(NC(=O)Cc2cccs2)c1`, the “hERG current change (%, negative = inhibition) at 10uM” value rises from 7.9% to 20.7%.

Compared with `O=C(O)c1cc([N+](=O)[O-])ccc1NCCCc1ccccc1`, `O=C(COC(=O)CCSc1ccc(Cl)cc1)NCCc1ccccc1` is lower in “hERG current change (%, negative = inhibition) at 10uM” value: 30% for the first, 14.8% for the second.

Going from `CN(C(=O)CN1C(=O)S/C(=C\c2ccccc2Cl)C1=O)C1CCS(=O)(=O)C1` (centres unmarked) to `CC1CCCN(C(=O)CN2C(=O)c3ccccc3S2(=O)=O)C1` (centres unmarked), the “hERG current change (%, negative = inhibition) at 10uM” value rises from 6.68% to 18.5%.

Compared with `CC(C)CCNC(=O)C(c1ccco1)N(CCCO)C(=O)Cn1nnc(-c2ccc(F)cc2)n1` (centres unmarked), `Cc1ccnc(NC(=O)CCCNC(=O)c2ccc(Cl)cc2)c1` is higher in “hERG current change (%, negative = inhibition) at 10uM” value: -20.2% for the first, 5.45% for the second.

Going from `CCCCC1CCC(C(=O)N(CC(C)C)c2c(N)n(CCCC)c(=O)[nH]c2=O)CC1` (centres unmarked) to `CC(C)Cn1c(N)c(C(=O)COC(=O)c2cnc(Cl)c(Cl)c2)c(=O)n(C)c1=O`, the “hERG current change (%, negative = inhibition) at 10uM” value falls from -3.04% to -71.1%.

Compared with `CCCCOc1ccc(C(=S)N2CCC(C(N)=O)CC2)cc1`, `CCCCOc1ccc(-c2[nH]ncc2C=O)cc1` is lower in “hERG current change (%, negative = inhibition) at 10uM” value: 6.67% for the first, 5% for the second.

Going from `Cc1ccc(-n2c3c(cc(C(=O)NC4CCSC4=O)c2=O)C(=O)CCC3)cc1` (centres unmarked) to `Cc1ccc(CC(=O)NCC2CCCCC2)cc1`, the “hERG current change (%, negative = inhibition) at 10uM” value rises from -6.67% to 7.16%.

Going from `CCOC(=O)CSc1nc(CC)nc2ccccc12` to `CCOC(=O)c1ccccc1NC(=O)CSc1nc2ccccc2o1`, the “hERG current change (%, negative = inhibition) at 10uM” value falls from 4.53% to 1.06%.

Going from `O=C(NCCc1ccccc1)C1CCN(C(=O)N2CCOc3ccccc32)CC1` to `N=c1c(C(=O)NCCc2ccccc2)cc2c(=O)n3ccccc3nc2n1Cc1ccco1`, the “hERG current change (%, negative = inhibition) at 10uM” value falls from -4.73% to -77.9%.

First: COC(=O)/C(C#N)=C/c1c(Oc2cccc(C)c2C)nc2ccccn2c1=O
Second: COc1cc(OC)cc(C(=O)NC(C)c2cnn(-c3ccccc3C)c2C)c1 (centres unmarked)
The “hERG current change (%, negative = inhibition) at 10uM” value of the first is lower: -12.6% for the first, -1.48% for the second.

Compared with `CCOc1ccccc1N1CCN(CC(O)COC2CCCc3ccccc32)CC1` (centres unmarked), `O=C(c1ccccc1)N1CCN(c2ncnc3sc4c(c23)CCC4)CC1` is lower in “hERG current change (%, negative = inhibition) at 10uM” value: -49.7% for the first, -56% for the second.

First: O=C(c1cc(-c2ccc3c(c2)OCO3)on1)N1CCN(c2ccccc2)CC1
Second: COc1ccc(S(=O)Cc2ccc(C(=O)N3CCN(c4cccc(C)c4C)CC3)o2)cc1 (centres unmarked)
The “hERG current change (%, negative = inhibition) at 10uM” value of the first is higher: 2.3% for the first, -23.8% for the second.

Compared with `COc1ccc(-n2nc(C(=O)NCC(=O)NCCC3=CCCCC3)c3ccccc3c2=O)cc1OC`, `COc1ccc(CCNC(=O)C2=CCN(S(=O)(=O)c3ccc(F)cc3)CC2)cc1OC` is lower in “hERG current change (%, negative = inhibition) at 10uM” value: 3.49% for the first, -15.1% for the second.

First: Cc1ccc(OC(=O)CCC(=O)OCCCC(F)(F)C(F)(F)F)cc1
Second: CCOc1ccc(OCC(=O)Nc2ccc(OC)cc2)cc1
The “hERG current change (%, negative = inhibition) at 10uM” value of the first is lower: 8.39% for the first, 22.7% for the second.

Going from `Cn1nc(C(C)(C)C)cc1NC(=O)Nc1ccc(F)cc1F` to `Cn1c(=O)oc2cc(S(=O)(=O)Nc3ccccc3F)ccc21`, the “hERG current change (%, negative = inhibition) at 10uM” value rises from 5.93% to 17.3%.

Compared with `Cc1c([C@@H]2C[C@H]3CN(Cc4cccc(Cl)c4)C(=O)[C@]34CCCN24)cnn1C`, `Cc1cccc(N2C(=O)C3CCCN3C2=S)c1` (centres unmarked) is higher in “hERG current change (%, negative = inhibition) at 10uM” value: -45.5% for the first, 11.2% for the second.

Going from `Cc1ccc2c(c1)c1nc3ccccc3nc1n2C` to `COc1ccc(CCn2c(-c3cc([N+](=O)[O-])cc([N+](=O)[O-])c3)nc3nc4ccccc4nc32)cc1OC`, the “hERG current change (%, negative = inhibition) at 10uM” value falls from 21.3% to -14.6%.

Going from `Cc1ccc(-c2nc(CS(=O)CC(=O)NCCCN3CCN(Cc4ccccc4)CC3)c(C)o2)cc1` (centres unmarked) to `CS(=O)(=O)c1ccc(Cl)c(NC(=O)CSc2nc3ccccc3c(=O)n2CCCN2CCOCC2)c1`, the “hERG current change (%, negative = inhibition) at 10uM” value falls from -38.2% to -47.7%.

Compared with `O=C(CNC(=O)c1ccc(Br)o1)NCC1CCCCC1`, `Oc1ccc(/C=N/NC2=NCCCCC2)c(O)c1` is lower in “hERG current change (%, negative = inhibition) at 10uM” value: 3.39% for the first, -19.8% for the second.

Compared with `Nc1nsc2ccccc12`, `Cc1cc(C(=O)OCC(=O)Nc2cccnc2Cl)c2ccccc2n1` is lower in “hERG current change (%, negative = inhibition) at 10uM” value: 14.3% for the first, 6.15% for the second.

Compared with `O=P(c1ccccc1)(c1ccccc1)N(c1ccccc1)c1ccccc1`, `Cc1ccc(C)n1-c1cccc(C(=O)Nc2ccccc2)c1` is lower in “hERG current change (%, negative = inhibition) at 10uM” value: 4.16% for the first, 2.57% for the second.

Compared with `O=C(c1c[nH]c2ccc(S(=O)(=O)N3CCOCC3)cc2c1=O)N1CCC2(CC1)OCCO2`, `CC(=O)Nc1ccc(S(=O)(=O)N2CC(=O)NC(=O)C2)cc1` is higher in “hERG current change (%, negative = inhibition) at 10uM” value: 23.7% for the first, 29.9% for the second.

Compared with `NS(=O)(=O)c1ccc(CCNC(=O)c2ccc[nH]c2=S)cc1`, `Cc1ccc(S(=O)(=O)Nc2nc(C)c(C(=O)NNS(=O)(=O)c3cc(C)ccc3C)s2)cc1` is higher in “hERG current change (%, negative = inhibition) at 10uM” value: -0.0831% for the first, 15.2% for the second.

Going from `COc1cc(/C=N/NC(=O)c2ccccc2O)ccc1OC(=O)CC1SC(=O)NC1=O` (centres unmarked) to `COc1ccccc1CNC(=O)CCn1c(=O)oc2ccccc21`, the “hERG current change (%, negative = inhibition) at 10uM” value falls from 11.8% to 0.0851%.

First: C=CCOc1ccccc1CNc1cccc(F)c1
Second: O=C(O)c1cccc(NC2=C(N3CCOCC3)C(=O)c3ccccc3C2=O)c1
The “hERG current change (%, negative = inhibition) at 10uM” value of the first is higher: 14.2% for the first, 12.4% for the second.

Going from `Cl.O=C(CCS(=O)(=O)c1ccccc1)N(CCCN1CCOCC1)c1nc2ccccc2s1` to `CC(=O)Nc1ccc(N2CCN(c3ccc(F)cc3)CC2)cc1`, the “hERG current change (%, negative = inhibition) at 10uM” value rises from -14.1% to 18.4%.

Going from `CNC(=S)N(CCc1c(C)[nH]c2ccccc12)Cc1ccco1` to `COc1ccc2c(c1)[nH]c1c(=O)n(/N=C/c3ccc(OC)c(CN4CCCC4)c3)cnc12`, the “hERG current change (%, negative = inhibition) at 10uM” value falls from 0.71% to -71.1%.
